# Data as given in paper PMC5892938.
# The other results are listed elsewhere or left out. At the low end of the ranking the order means little.
# Biological target: GST-SBP-SLBP (stem-loop binding protein) (UniProt Q14493)
# Assay: targeted RNA Bind-n-Seq;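 also: DESeq read counts versus GST-SBP nonspecific binding control pulldown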
# Settings: RBNS binding buffer: 25 mM Tris pH 7.5, 150 mM KCl, 3 mM MgCl2, 0.1% Tween, 0.5 mg/mL BSA, 1 mM DTT; 27 nM protein, 750 pM RNA pool; temperature not stated; high values mean tight binding
row,Sequence,binding signal (log2 fold change)
1,GGUCACGUCUCAAUCAACUCCACAGAGGGGGGGAAAACCCCUUUACCCUCAAACUCAACAGCUCGCAGUCAAG,-0.145
2,GGUCACGUCUCAAUCAACUCUCUAGAGGGGGGGAAAACCCCUUUACCCUCACUUUCAACAGCUCGCAGUCAAG,0.308
3,GGUCACGUCUCAAUCAACUCUAUCCCAGGAGUUUCCUCCUGCAUUUUCAACAGCUCGCAGUCAAG,0.0547
4,GGUCACGUCUCAAUCAACUCUUCCUCCAGGGAAAACCCUGGCUAACUCAACAGCUCGCAGUCAAG,0.0355
5,GGUCACGUCUCAAUCAACUCAUUUUCCAGGGAAAUCCCUGGCUUUUUCAACAGCUCGCAGUCAAG,-0.0822
6,GGUCACGUCUCAAUCAACUCAUCCUCAGGAGUUUUCUCCUGUUAACUCAACAGCUCGCAGUCAAG,-0.00965
7,GGUCACGUCUCAAUCAACUCAAUCUCCAGGGAAAUCCCUGGCUUAUUCAACAGCUCGCAGUCAAG,0.232
8,GGUCACGUCUCAAUCAACUCUACGGCAGGAGUUUUCUCCUGGAAUUUCAACAGCUCGCAGUCAAG,0.0297
9,GGUCACGUCUCAAUCAACUCUUCGUCAGGAGUUUCCUCCUGUAAACUCAACAGCUCGCAGUCAAG,-0.0206
10,GGUCACGUCUCAAUCAACUCUAUUCCCAGGGAAAUCCCUGGUUAAUUCAACAGCUCGCAGUCAAG,0.122
11,GGUCACGUCUCAAUCAACUCUCAAGAGGGGGGGAAAACCCCUUUGCCCUCGUAUUCAACAGCUCGCAGUCAAG,-0.159
12,GGUCACGUCUCAAUCAACUCAUCUUCAGGAGUUUUCUCCUGCAUACUCAACAGCUCGCAGUCAAG,0.127
13,GGUCACGUCUCAAUCAACUCAACUUCAGGAGUUUACUCCUGUUAUUUCAACAGCUCGCAGUCAAG,-0.0153
14,GGUCACGUCUCAAUCAACUCAUCUUCCAGGGAAAUCCCUGGCUUAUUCAACAGCUCGCAGUCAAG,0.0142
15,GGUCACGUCUCAAUCAACUCCACAGAGGGGGGGAAAACCCCUUUACCCUCCAACUCAACAGCUCGCAGUCAAG,-0.0663
16,GGUCACGUCUCAAUCAACUCUCAGGAGGGGGGGAAAACCCCUUUACCCUCAAUCUCAACAGCUCGCAGUCAAG,-0.0842
17,GGUCACGUCUCAAUCAACUCAUUCCCAGGAGUUUCCUCCUGCAUUUUCAACAGCUCGCAGUCAAG,0.00217
18,GGUCACGUCUCAAUCAACUCAAUUCCAGGAGUUUUCUCCUGCAAACUCAACAGCUCGCAGUCAAG,0.0933
19,GGUCACGUCUCAAUCAACUCAAUCCCAGGAGUUUUCUCCUGUAUUUUCAACAGCUCGCAGUCAAG,0.00353
20,GGUCACGUCUCAAUCAACUCCUAAGAGGGGGGGAAAACCCCUUUACCCUCCGUAUCAACAGCUCGCAGUCAAG,-0.376
21,GGUCACGUCUCAAUCAACUCUUCCCCCAGGGAAAUCCCUGGCUUAUUCAACAGCUCGCAGUCAAG,-0.15
22,GGUCACGUCUCAAUCAACUCAAUUCCAGGAGUUUCCUCCUGCAUUCUCAACAGCUCGCAGUCAAG,0.195
23,GGUCACGUCUCAAUCAACUCAUCCUCCAGGGAAAGCCCUGGCUAUCUCAACAGCUCGCAGUCAAG,0.109
24,GGUCACGUCUCAAUCAACUCCAAAGAGGGGGGGAAAACCCCUUUGCCCUCCAACUCAACAGCUCGCAGUCAAG,0.0593
25,GGUCACGUCUCAAUCAACUCUAUUUCCAGGGAAACCCCUGGCGUUUUCAACAGCUCGCAGUCAAG,0.041

row,Sequence,binding signal (log2 fold change)
1,GGUCACGUCUCAAUCAACUCUUCCUCCAGGGAAACCCCUGGUUUAUUCAACAGCUCGCAGUCAAG,-0.12
2,GGUCACGUCUCAAUCAACUCUAUUUCAGGAGUUUACUCCUGCAUUUUCAACAGCUCGCAGUCAAG,0.241
3,GGUCACGUCUCAAUCAACUCAUGUCCAGGAGUUUACUCCUGCUUUUUCAACAGCUCGCAGUCAAG,0.058
4,GGUCACGUCUCAAUCAACUCAAUUCCCAGGGAAAUCCCUGGUAUACUCAACAGCUCGCAGUCAAG,0.0394
5,GGUCACGUCUCAAUCAACUCUUUUCCCAGGGAAACCCCUGGCAUUCUCAACAGCUCGCAGUCAAG,0.144
6,GGUCACGUCUCAAUCAACUCAUCCGAGGGGGGGAAAACCCCUUUACCCUCAUCAUCAACAGCUCGCAGUCAAG,-0.0838
7,GGUCACGUCUCAAUCAACUCUAUUUCAGGAGUUUCCUCCUGUUUUGUCAACAGCUCGCAGUCAAG,0.0259
8,GGUCACGUCUCAAUCAACUCUUAAGAGGGGGGGAAAACCCCUUUGCCCUCAUUUUCAACAGCUCGCAGUCAAG,-0.276
9,GGUCACGUCUCAAUCAACUCUCAAGAGGGGGGGAAAACCCCUUUACCCUCCAUGUCAACAGCUCGCAGUCAAG,-0.398
10,GGUCACGUCUCAAUCAACUCUAUUUCCAGGGAAAUCCCUGGCAUUCUCAACAGCUCGCAGUCAAG,-0.0812
11,GGUCACGUCUCAAUCAACUCAAAAGAGGGGGGGAAAACCCCUUUACCCUCAUCAUCAACAGCUCGCAGUCAAG,0.265
12,GGUCACGUCUCAAUCAACUCUAGUCCCAGGGAAAGCCCUGGUUAUUUCAACAGCUCGCAGUCAAG,0.076
13,GGUCACGUCUCAAUCAACUCUACAGAGGGGGGGAAAACCCCUUUGCCCUCCAAAUCAACAGCUCGCAGUCAAG,-0.0841
14,GGUCACGUCUCAAUCAACUCUUCCUCCAGGGAAAGCCCUGGCAAUUUCAACAGCUCGCAGUCAAG,-0.0758
15,GGUCACGUCUCAAUCAACUCUCCCGAGGGGGGGAAAACCCCUUUACCCUCCAUUUCAACAGCUCGCAGUCAAG,0.0186
16,GGUCACGUCUCAAUCAACUCCCUAGAGGGGGGGAAAACCCCUUUACCCUCCGCAUCAACAGCUCGCAGUCAAG,0.0585
17,GGUCACGUCUCAAUCAACUCAUGUCCCAGGGAAAGCCCUGGUUUUUUCAACAGCUCGCAGUCAAG,-0.172
18,GGUCACGUCUCAAUCAACUCAAGUCCCAGGGAAAACCCUGGCAAAUUCAACAGCUCGCAGUCAAG,0.104
19,GGUCACGUCUCAAUCAACUCAUCUUCAGGAGUUUUCUCCUGCGUAUUCAACAGCUCGCAGUCAAG,0.0807
20,GGUCACGUCUCAAUCAACUCAAUAGAGGGGGGGAAAACCCCUUUACCCUCAUUCUCAACAGCUCGCAGUCAAG,0.183
21,GGUCACGUCUCAAUCAACUCUUCCUCAGGAGUUUACUCCUGUUUUCUCAACAGCUCGCAGUCAAG,0.076
22,GGUCACGUCUCAAUCAACUCAAUCUCCAGGGAAAGCCCUGGUAUUUUCAACAGCUCGCAGUCAAG,-0.155
23,GGUCACGUCUCAAUCAACUCCUAAGAGGGGGGGAAAACCCCUUUGCCCUCGAUAUCAACAGCUCGCAGUCAAG,-0.195
24,GGUCACGUCUCAAUCAACUCUAUUCCAGGAGUUUCCUCCUGUAUACUCAACAGCUCGCAGUCAAG,-0.00294
25,GGUCACGUCUCAAUCAACUCAUCCUCAGGAGUUUACUCCUGUAAUUUCAACAGCUCGCAGUCAAG,-0.0536

row,Sequence,binding signal (log2 fold change)
1,GGUCACGUCUCAAUCAACUCUAACGAGGGGGGGAAAACCCCUUUACCCUCAAUGUCAACAGCUCGCAGUCAAG,-0.116
2,GGUCACGUCUCAAUCAACUCUUCCUCCAGGGAAAUCCCUGGCAUUCUCAACAGCUCGCAGUCAAG,0.141
3,GGUCACGUCUCAAUCAACUCAUCCUCCAGGGAAACCCCUGGUAUACUCAACAGCUCGCAGUCAAG,0.0572
4,GGUCACGUCUCAAUCAACUCUUUUUCAGGAGUUUACUCCUGUUAAUUCAACAGCUCGCAGUCAAG,-0.0221
5,GGUCACGUCUCAAUCAACUCAACUCCAGGAGUUUUCUCCUGUAUUCUCAACAGCUCGCAGUCAAG,0.112
6,GGUCACGUCUCAAUCAACUCAUUUUCCAGGGAAAACCCUGGCUUUCUCAACAGCUCGCAGUCAAG,-0.182
7,GGUCACGUCUCAAUCAACUCUAUCUCAGGAGUUUUCUCCUGCUUACUCAACAGCUCGCAGUCAAG,0.147
8,GGUCACGUCUCAAUCAACUCUUCAGAGGGGGGGAAAACCCCUUUACCCUCCUACUCAACAGCUCGCAGUCAAG,0.0529
9,GGUCACGUCUCAAUCAACUCUAUCUCAGGAGUUUCCUCCUGCUUAUUCAACAGCUCGCAGUCAAG,-0.079
10,GGUCACGUCUCAAUCAACUCAUCCCCAGGAGUUUCCUCCUGUAUACUCAACAGCUCGCAGUCAAG,-0.000309
11,GGUCACGUCUCAAUCAACUCAAUCUCAGGAGUUUCCUCCUGCAAUCUCAACAGCUCGCAGUCAAG,0.133
12,GGUCACGUCUCAAUCAACUCUUUUCCCAGGGAAAACCCUGGCAUUCUCAACAGCUCGCAGUCAAG,0.072
13,GGUCACGUCUCAAUCAACUCAUUUCCCAGGGAAAGCCCUGGCAUUUUCAACAGCUCGCAGUCAAG,-0.261
14,GGUCACGUCUCAAUCAACUCAAUUUCCAGGGAAACCCCUGGCGUAUUCAACAGCUCGCAGUCAAG,-0.155
15,GGUCACGUCUCAAUCAACUCAUUUUCAGGAGUUUUCUCCUGUUUAGUCAACAGCUCGCAGUCAAG,0.111
16,GGUCACGUCUCAAUCAACUCUCAAGAGGGGGGGAAAACCCCUUUGCCCUCGAAUUCAACAGCUCGCAGUCAAG,-0.262
17,GGUCACGUCUCAAUCAACUCUACUCCCAGGGAAAGCCCUGGUAAUCUCAACAGCUCGCAGUCAAG,-0.0134
18,GGUCACGUCUCAAUCAACUCUCCAGAGGGGGGGAAAACCCCUUUACCCUCGUCAUCAACAGCUCGCAGUCAAG,-0.407
19,GGUCACGUCUCAAUCAACUCAAUAGAGGGGGGGAAAACCCCUUUACCCUCGAAAUCAACAGCUCGCAGUCAAG,0.268
20,GGUCACGUCUCAAUCAACUCUAUUCCAGGAGUUUGCUCCUGCAUAUUCAACAGCUCGCAGUCAAG,0.0594
21,GGUCACGUCUCAAUCAACUCAAUCCCCAGGGAAACCCCUGGUAUACUCAACAGCUCGCAGUCAAG,0.0463
22,GGUCACGUCUCAAUCAACUCAAUUUCAGGAGUUUCCUCCUGUAUUUUCAACAGCUCGCAGUCAAG,0.047
23,GGUCACGUCUCAAUCAACUCAUUUUCAGGAGUUUACUCCUGUUUAGUCAACAGCUCGCAGUCAAG,-0.00551
24,GGUCACGUCUCAAUCAACUCUACUUCCAGGGAAAGCCCUGGCAUAUUCAACAGCUCGCAGUCAAG,0.212
